Experimental data: the supplement of paper PMC11417369
± gives the standard deviation of the averaged measurements. The list shows a part of the results.

What follows are sequences tested on PfAP2-LT AP2 domain (GST-tagged) (assay: gcPBM binding intensity (ln(normalized median fluorescence intensity)); higher = stronger DNA binding).
Summary of the method: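 Alexa488 anti-GST antibody, scanned at 488 nm, detected GST-tagged P. falciparum DNA-binding domains that had been expressed in E. coli and incubated for 1 h on an Agilent 4 × 180k array. The array carried primer-extended double-stranded 36-bp intergenic genomic probes and negative controls. Binding intensity is the highest Masliner-normalised natural-log median intensity across replicate spots of either orientation of each probe.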

Sequence | gcPBM binding intensity (ln)
TTTTTTACAAATGATATCATTTCTTTAAATATTAAA [TGCATGCA_negctrl_site279] | 8.32 ± 0.52
CTATAAATGAATGTTTGTACTTAATAATAAAAGAAA [XGTACX_site3170] | 8.46 ± 0.52
GCACACACAAAAAAAGCATGCATACTAGCTATTTTT [TGCATGCA_site18] | 9.37 ± 0.42
TATTTTTTTCATAACAGTACAATAATATATATTTTT [XGTACX_site5739] | 8.47 ± 0.52
AATCAAAAAAAATGTTGTACGCCTAATTATAATTAA [XGTACX_site8906] | 8.68 ± 0.46
AAAAAACACCCATACACACACACACCGATATATATA [CACACA_site5808] | 10.2 ± 0.24
TATTCGTGCAATAATAGTACACTTATAAATTATTCA [XGTACX_site8993] | 8.52 ± 0.45
AATGAAATAAATAAGGGTACACATAAATATATATAT [XGTACX_site7006] | 9.04 ± 0.43
AAATTATTATGTATTTGTACACATAAGAATATAAAA [XGTACX_site6841] | 8.7 ± 0.32
TATAAATAATGTTAAACACACATACCGATATATAAT [CACACA_site5499] | 9.02 ± 0.4
AATGGGGAAGGTTCTACACACAACGCAAATGCCTTA [CACACA_site2758] | 9.15 ± 0.28
AGAGAAAGAAAGAAATGTACAAATACCTACACACAT [XGTACX_site3140] | 9.26 ± 0.31
TCAGTTAATGTATATGTACACACGGTGAGTATATAT [CACACA_site3346] | 9.11 ± 0.47
ATCCACAAAATAGGATGTACATATAAAATAAATAAA [XGTACX_site5362] | 8.9 ± 0.62
TATGGAATAATACGCGTACACACATATATATATTAA [CACACA_site132] | 9.18 ± 0.38
CATTTTTTATAATAATGTACATGTATTAAAAAAAAA [XGTACX_site6390] | 8.29 ± 0.48
TTTATAAGAATTACTAGTACATATAAGGAATTATAT [XGTACX_site3953] | 8.49 ± 0.42
TTATAAATTTAAAGTAGTACTATACTACTATTTTAT [XGTACX_site3038] | 8.54 ± 0.43
ACATATAAAATATATACACACATATAAATACATTAA [CACACA_site3867] | 9.09 ± 0.38
TATATATCAAAAATATGTACACAGAAATATATATTA [XGTACX_site6997] | 8.79 ± 0.38
TTGCAATAATGTTGCACACTAAATAGTCATATATAA [CACACA_site263] | 8.75 ± 0.38
ATATAATATTACAAATGTACTTTAAAAAATTAGGAG [XGTACX_site3897] | 8.55 ± 0.44

Sequence | gcPBM binding intensity (ln)
TTGTTTCAAGAAAAAATCGAAAAACATAGAAAAAAA [XGTACX_negctrl_site615] | 8.44 ± 0.46
ATATTTTTGTTCAGGAGTACAGTTCAAGATGAAAAT [XGTACX_site4178] | 8.64 ± 0.42
TTTGGGATATTTACAGTGCAAAGATATTTTTATAAT | 8.46 ± 0.45
TTTTTTATATATGTGTGTGTGTGTGTGTCAAGTTTA [GTGCAC_negctrl_site460] | 10.3 ± 0.24
ATAACATAATAGCAACAATTTATTTCCTCTATAACA [CACACA_negctrl_site243] | 8.56 ± 0.42
TTTTAGTGAAATGAGTGTACATTATATATTTTTTTT [XGTACX_site4892] | 8.54 ± 0.39
ATTCTATATATATAAACACACAAATATTTTTATATA [CACACA_site1677] | 8.63 ± 0.48
AAGACTAATCTAGGTAGTACTTATATATCTTTATTT [XGTACX_site4572] | 8.63 ± 0.45
ATATAAGGAAGGGATGCACACAAAAGGGTACATAAG [CACACA_site9328] | 9.28 ± 0.52
AAAAATATAATATATCTAAAATTTTTCATTAAATAT [XGTACX_negctrl_site274] | 8.2 ± 0.52
ACATATATATATTTATATATATATATATATATGTGA [CACACA_negctrl_site613] | 8.96 ± 0.39
TTATATATAGAATAAACATGCATTTGTATATGAATA [TGCATGCA_site604] | 8.55 ± 0.5
ATAAATAAAAATACATGAACAGGTCAGGTTATTTTT [CACACA_negctrl_site1007] | 8.69 ± 0.45
TTTTTTTTTTTTTTTACACACTATAGGGAAAAAAAA [CACACA_site1916] | 8.21 ± 0.37
TCATATTAATTTGATAGTACATATACTTTGAAGTCC [XGTACX_site3767] | 8.61 ± 0.49
TGTATATAAACAAGGGGTACAATAATATAAATAAAT [XGTACX_site8675] | 8.98 ± 0.51
TCACATACATTACTTACACACCATATTAATATATAC [CACACA_site8047] | 9.01 ± 0.4
AATAAAAAATAAAAAATAAACAGTATACATATATAT [GTGCAC_negctrl_site31] | 8.84 ± 0.37
AACAGACATAGACACACACACATATATTTATTTATA [CACACA_site7571] | 9.7 ± 0.38
TTTTTTAAATTTTGAATTATAACTACATTAAAGAAA [GTGCAC_negctrl_site279] | 7.87 ± 0.38
ATGCAAATAATATAAAGTACACAACATCGCCCAAAG [XGTACX_site1825] | 9.37 ± 0.3
CATTATGTCATAAATGCACACATATATATATACATA [CACACA_site8454] | 9.07 ± 0.31

Sequence | gcPBM binding intensity (ln)
TATTTAAAAGTATATACACACAACTGGAATGAAAAG [CACACA_site4126] | 9.02 ± 0.41
TATGTATGCCCTAATGCATGTGAACAAAATAATATA [TGCATGCA_site407] | 8.81 ± 0.47
TATTTTAATCGTAAGTGTACTCTTTTAAGTATATGT [XGTACX_site8591] | 8.73 ± 0.47
ATTATAACACCTCCCCCCCTTTTTTTATGAAGACCA [CACACA_negctrl_site1043] | 10.1 ± 0.4
AAAATTAAAAAAATAAATACATTATATAATTAAAAA [CACACA_negctrl_site1426] | 8.41 ± 0.47
TTTATTAGATAACGATAAACGAAAAAAAAAAAATAA [GTGCAC_negctrl_site81] | 8.54 ± 0.57
ATAATATAAATAAAGCGTACTTAATTTTATATATAT [XGTACX_site4626] | 8.61 ± 0.37
TGTTGTAACAAAAGTACACACACATTTCTATAAATT [CACACA_site8894] | 9.1 ± 0.35
ATTACATAACAATATACACACTATTGATTAAAGAGA [CACACA_site5602] | 8.97 ± 0.42
AAATATATTATATTTAGTACGCATATATAATATGCA [XGTACX_site4835] | 8.49 ± 0.48
ATGAAAATTTATATTGCACACATAGGGAATAAAAAA [CACACA_site8667] | 9.03 ± 0.36
AGTTAATTAATAGGCACACATATATATGTATAAATA [CACACA_site523] | 9.02 ± 0.49
GTAAGAATATTTATAAATGTATAATTTGTATTATTT [GTGCAC_negctrl_site667] | 8.6 ± 0.52
ATCGAAATTTTAGAATATATATGATGTTACTTAAGT [GTGCAC_negctrl_site611] | 8.6 ± 0.35
TAAAATATCATAGATAGTACATATAACGTTTTATAT [XGTACX_site5666] | 8.76 ± 0.42
CATGACATAAAAAATATACACACTATAATATATATA [CACACA_site1402] | 8.96 ± 0.4
TATATATCTATATTTACACACAGTTACTATGTAGAT [CACACA_site7532] | 9.05 ± 0.42
GTTAAACTTAATATCGGTACACACACAAGATAAGAA [XGTACX_site1660] | 9.27 ± 0.54
ATAATATGTATAATCACACATTTTTCTTTTAAGACA [CACACA_site5297] | 8.7 ± 0.42
ACCATATAAATAAACACACACACACCCATATATATA [CACACA_site2321] | 10 ± 0.36
GGTTCATTAAAGTGTACACATAAATACCGTAACATT [CACACA_site6002] | 9 ± 0.47
CTAAGGTATGATTAATCACACACATAAATATATATA [CACACA_site8847] | 9.17 ± 0.59

Sequence | gcPBM binding intensity (ln)
GTGGCTACTATATATTGTACGATATTATATATATAC [XGTACX_site8376] | 9.04 ± 0.39
AGAATAAGAATTATTAGTACTTATAAATATTATATT [XGTACX_site7228] | 8.51 ± 0.58
CTATTACATTAAATGTGTACATATATATATATATAT [XGTACX_site5233] | 9.49 ± 0.28
TAATTTAAAATATATAGTACACACGTGAACACAAAT [XGTACX_site792] | 9.01 ± 0.38
GTAAATACACATATGTGTACATATATATATATATAT [XGTACX_site3696] | 9.67 ± 0.31
TCATCATGTATGTACACACATACATATATTATGTAC [CACACA_site1386] | 9.15 ± 0.32
CTTTTTGAAATATTAACACACATTTTGTTAATGAAT [CACACA_site6087] | 8.67 ± 0.4
TATAAGTAGATAAGGGTGCACAATATAAATATATAG | 9.13 ± 0.61
GGTTAGACGAAATATACATGCAATGGAAAATAAGTT [TGCATGCA_site23] | 9.16 ± 0.49
ATATTAATTTCTCATGCATGTTCTTCCCAATTGTAA [TGCATGCA_site425] | 8.94 ± 0.42
GGAATAAAGACAGCACGTACATATCTTACGAAGCTC [XGTACX_site3918] | 8.86 ± 0.49
CACAAGAAAATTCACACACACACATATATATATATA [CACACA_site3880] | 10.2 ± 0.14
TCCTTAATTCAAAAAATAATATCTTATATTTCAAAT [CACACA_negctrl_site1592] | 8.12 ± 0.48
TGCATTATATTAAATTTTTTATTTGTTGATGTTATA [GTGCAC_negctrl_site371] | 8.57 ± 0.47
TGAAATAAAATTTGTACACACATATTTATTTATATA [CACACA_site6421] | 8.75 ± 0.44
AAATAAAAGATATTTTTACACACTTTTGATGAGATC [CACACA_site9000] | 8.66 ± 0.42
TATTTTTTTTGTCATATATAAGAAACGCTCTTCTTT [TGCATGCA_negctrl_site127] | 8.49 ± 0.47
ATATTTATATTTTCATGTACGTATTTTTATATATAT [XGTACX_site8478] | 9.03 ± 0.4
TATAGATATATACGGTGTACATACATAAAAAAAAAA [XGTACX_site1648] | 8.81 ± 0.59
ATTTTTATTAGTTATTGTACTTATTATTTATTAATT [XGTACX_site2568] | 8.85 ± 0.45
TATAGTCAACTAGTCACACATATAATTATATATATA [CACACA_site5872] | 8.76 ± 0.4
TATAAAGAAATCATTACACACAAATAAATACATACA [CACACA_site2675] | 9.13 ± 0.38
